# The list shows a part of the results. The full chains were built here from the parent and the listed change. Inactive controls read about 0.05.
# B1: TEV protease; numbered along this chain (parent)
# chain: MGESLFKGPRDYNPISSSICHLTNESDGHTTSLYGIGFGPFIITNKHLFRRNNGTLVVQSLHGVFKVKDTTTLQQHLVDGRDMIIIRMPKDFPPFPQKLKFREPQREERICLVTTNFQTKSMSSMVSDTSCTFPSGDGIFWKHWIQTKDGQCGSPLVSTRDGFIVGIHSASNFTNTNNYFTSVPKNFMELLTNQEAQQWVSGWRLNADSVLWGGHKVFMVKPEEPFQPVKEATQL
# Variants of: B1
# Experiment: raw area under fraction-flipped curve 0-4 h after induction (AUC4h, not background-subtracted), DNA-recorder readout of cleavage of the substrate (dimensionless); higher = more cleavage of the substrate by the protease variant
# Settings: temperature: 34 °C; time window: 0-4 h after rhamnose induction
# Description: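 In vivo DNA recorder in E. coli TOP10(DE3) ΔrhaA at 34 °C. Each TEVp single-site mutant (parent TEVp 0) is paired with a single-site variant of the 7-mer TEVs (canonical ENLYFQ|S). The substrate sits between flexible linkers in a Bxb1-sfGFP-TEVs-SsrA fusion, so cleavage stabilises Bxb1 and speeds flipping of a recombination array, read by NGS. The value is the raw area under the fraction-flipped curve over 0-4 h after rhamnose induction (AUC4h), with ≥20 reads per time point. It is not background-subtracted; inactive controls average about 0.047.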
# 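Further: Bxb1 expression induced with 0.2% (w/v) L-rhamnose at OD600 near 0.5, cultures sampled hourly, flipped fraction per protease–substrate barcode pair counted by paired-end Illumina sequencing.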
Variant,area with substrate ENLYFCS,area with substrate ENLYFDS,area with substrate ENLYFES,area with substrate ENLYFFS,area with substrate ENLYFHS,area with substrate ENLYFIS,area with substrate ENLYFKS,area with substrate ENLYFMS,area with substrate ENLYFNS,area with substrate ENLYFPS,area with substrate ENLYFRS,area with substrate ENLYFSS,area with substrate ENLYFTS,area with substrate ENLYFVS,area with substrate ENLYFWS,area with substrate ENLYFYS,area with substrate ENLYFGS,area with substrate ENLYFLS
S4F,0.0664,0.0456,0.0763,0.0668,0.0703,0.0611,0.0639,0.0868,0.0965,0.0585,0.0638,0.0436,0.0811,0.0545,0.0684,–,–,–
F6R,0.0589,0.0453,0.046,–,0.0615,0.0497,0.0735,0.0684,–,0.0559,0.0554,–,0.0558,–,–,0.0589,–,–
P9H,0.0588,–,0.066,0.0589,0.0554,–,0.0505,0.0866,0.0749,0.0662,0.0647,–,–,–,–,0.0625,–,–
T31H,0.0557,–,0.0798,0.0649,–,0.0607,0.0506,0.0685,0.0636,0.0586,–,–,0.0471,–,0.0598,0.0733,0.0794,0.0585
T31L,0.0541,0.0663,–,0.0677,0.0565,0.0668,0.0654,0.0531,–,0.0467,–,0.0565,–,–,0.0592,0.058,–,–
Y34N,0.0323,0.0695,0.0996,0.0652,–,0.0494,–,0.064,–,0.0599,–,–,–,–,0.0492,–,0.0444,–
G39P,0.0342,0.0328,0.0354,0.0422,0.0374,0.0339,–,0.0405,0.0443,0.0385,–,0.015,0.0183,0.0467,0.0364,–,–,0.0477
F41C,0.0673,0.0562,0.0899,0.0643,0.0684,0.0577,0.0616,0.0553,–,0.0557,0.0774,0.0415,0.0585,–,0.0573,0.052,–,–
F41K,0.05,0.065,–,0.0505,–,0.0438,0.0628,0.04,0.0483,0.0481,–,0.0483,0.063,0.0475,–,–,–,–
T44V,0.0589,–,–,0.0508,–,–,0.0541,–,0.066,0.0485,0.0746,0.0656,0.0604,0.047,–,–,–,0.0405
F49S,0.0498,0.0568,0.0596,0.0656,–,0.0384,0.0507,0.0553,0.0666,0.0522,0.0569,0.0494,–,–,–,0.0464,–,–
V57D,0.0588,0.0585,0.0828,0.0681,0.0612,0.0609,0.0689,0.0591,0.0628,0.063,0.0243,–,0.0513,0.0331,–,0.0552,0.0616,0.0564
L61Q,0.0552,0.0227,0.0592,0.0671,–,0.0484,0.0689,0.0625,0.0634,0.043,–,–,0.0579,0.0598,0.0687,0.0473,–,–
L61S,0.0716,0.0414,–,0.0495,–,0.054,–,0.0589,–,–,0.063,0.0652,–,–,–,–,–,0.0527
F65S,0.0542,–,0.0634,0.0669,0.0492,0.0532,–,0.0572,0.0597,0.0382,0.0501,–,0.059,–,0.0639,–,–,0.0719
F65Y,0.0623,0.0365,0.0651,0.0976,–,0.0662,–,0.0701,0.063,0.0662,0.0647,0.0733,0.0361,0.0468,–,–,0.0366,0.103

Variant,area with substrate ENLYFCS,area with substrate ENLYFDS,area with substrate ENLYFES,area with substrate ENLYFFS,area with substrate ENLYFHS,area with substrate ENLYFIS,area with substrate ENLYFKS,area with substrate ENLYFMS,area with substrate ENLYFNS,area with substrate ENLYFPS,area with substrate ENLYFRS,area with substrate ENLYFSS,area with substrate ENLYFTS,area with substrate ENLYFVS,area with substrate ENLYFWS,area with substrate ENLYFYS,area with substrate ENLYFGS,area with substrate ENLYFLS
T70M,0.0413,–,0.0632,0.0661,0.0566,0.0543,–,0.058,0.0696,0.0646,–,–,0.0714,0.0794,0.0565,–,–,–
T70V,0.0545,0.0559,0.0842,0.0699,–,0.0541,–,0.0607,0.0562,0.0552,0.062,0.0588,0.0588,0.0701,–,–,–,0.0579
T71M,0.047,0.0574,0.055,–,–,0.0768,0.0192,0.0768,–,0.0637,–,–,0.0758,–,0.0751,–,–,0.0523
Q75T,0.0664,–,0.0626,0.0698,0.0704,0.0563,–,0.0695,0.0688,0.0444,0.0452,0.0646,0.06,–,–,–,–,0.0666
H76P,0.0629,–,0.0501,0.0707,0.044,0.0631,0.0617,0.037,0.0565,0.0503,–,0.0511,0.05,–,0.051,–,–,–
G80F,0.0547,–,0.0623,–,–,0.049,–,–,0.069,0.0444,0.0739,0.0703,0.055,–,0.0512,0.0782,–,0.0546
M83Y,0.0674,–,0.0321,–,–,–,–,–,–,0.0674,–,0.0509,0.0505,–,–,–,0.0568,–
R87G,0.0662,–,–,–,–,0.083,0.0598,–,–,–,0.0689,–,–,–,–,0.0248,–,–
D91L,0.0553,0.0481,–,–,–,0.0514,–,–,–,0.0653,–,–,–,–,0.0462,–,–,–
F92P,0.0468,0.0428,–,0.0727,0.0474,0.0502,0.0573,0.0599,0.0581,0.0793,–,–,0.0533,0.0515,0.048,–,–,–
P94M,0.0793,–,–,0.0674,–,0.0541,0.0584,0.0479,0.0652,0.0621,0.052,–,0.0661,–,0.0597,–,–,–
Q97F,0.0588,–,–,–,–,–,–,0.0615,–,–,–,0.0544,–,–,–,–,0.0616,0.0659
R102K,0.0567,0.0575,0.0619,0.0852,0.0575,0.0574,0.0618,0.0747,0.0698,0.0658,0.0554,0.0574,0.0638,0.0562,–,–,–,–
R109F,0.0317,–,–,–,–,0.049,0.0603,0.0555,–,0.0493,–,0.0648,–,0.0595,–,–,0.0471,–
F117D,0.0475,–,0.0682,0.037,–,0.0611,–,–,0.0592,–,0.0672,–,–,0.0585,0.0704,0.0463,–,0.0595
T119P,0.0613,–,–,0.0746,0.0506,0.0588,–,0.0703,0.0611,–,–,–,–,0.0638,–,–,–,0.0409

# — the supplement of paper PMC12217912
